# Data taken from the supplement of paper PMC11417369.
# ± gives the standard deviation of the averaged measurements. The list shows a part of the results.
# Tested on: PfAP2-LT AP2 domain (GST-tagged)
# Test: gcPBM binding intensity (ln(normalized median fluorescence intensity)); higher = stronger DNA binding
# Outline: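 DNA-binding domains from P. falciparum, fused to GST and produced in E. coli, were put on an Agilent 4 × 180k double-stranded probe array for 1 h in 1× PBS holding 1% milk, 0.2 mg/ml BSA, 0.5% salmon testes DNA and 0.03% Triton X-100. Probes were primer-extended, 36 bp long and drawn from intergenic genomic regions, with negative controls included. After Alexa488 anti-GST antibody detection and a 488 nm scan, binding intensity was set as the highest Masliner-normalised natural-log median intensity across replicate spots of either probe orientation.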
row,Sequence,gcPBM binding intensity (ln)
1,CAACATTAATATAAAGCACACATATATATAATATAT [CACACA_site8064],8.98 ± 0.46
2,ACTCTATAATAAAATACACACAAGACTATCTAATAT [CACACA_site1796],9.03 ± 0.35
3,TCTTTTTTTTTTTTTTTTTTTTTTTTTTTTTTTTTT [GTGCAC_negctrl_site18],8.63 ± 0.18
4,ATTTTAATGACATATACACACAAAGGTTCATAACAA [CACACA_site5664],8.96 ± 0.3
5,TTTTCTTTTTAAATTACACACACATATATATATGTA [CACACA_site9172],9.21 ± 0.3
6,ATAAAACCAACATAGAGTACAGATCGACTATGTTTC [XGTACX_site4329],9.05 ± 0.47
7,TGTAGATATTATATATGTACGCATATGAAATATATA [XGTACX_site1586],8.7 ± 0.38
8,AAAATATATAATATAACACACATATATTCTATATGG [CACACA_site4044],8.86 ± 0.4
9,TTCAAAATATATATTTGTACATATAGGATCTTTTTC [XGTACX_site4500],8.63 ± 0.42
10,TAATTATATAAATATTGTACAAAAAAAATATATATA [XGTACX_site3137],8.64 ± 0.45
11,GTAATATCAATATAAAGTACACACTATAGTATGTAT [XGTACX_site4714],9.05 ± 0.37
12,TATATTCTTTTAAACAGTACACACACACATATATAT [XGTACX_site1701],9.64 ± 0.47
13,AATATAAAAATATAAAAACACACGTAAAAAAATTTA [CACACA_site3399],8.86 ± 0.52
14,AAAAAAATTAAAAATAAAGAAAAAAAAAAAAAAAAA [GTGCAC_negctrl_site401],8.38 ± 0.42
15,TTTTTTTTTTTGAGGAGGACACAAAAATATGCTACC [XGTACX_site756],8.55 ± 0.39
16,GAATATTTATCATGGGGTACCTTAAAAAAGGGAAAA [XGTACX_site298],8.46 ± 0.5
17,TTTTATTTATAATATATACACACTAACATTATTTAT [CACACA_site1284],8.69 ± 0.37
18,ATATCTTAAATTATTTGTACATATATATATATATAT [XGTACX_site8034],9.35 ± 0.18
19,ATATATATATATATATGTACACAGGACAATAATCCT [XGTACX_site6383],9.8 ± 0.49
20,TATTAAAAGGTGAGTACACACATATATGTGTATATA [CACACA_site7070],9.29 ± 0.38
21,TTTTTTTTTATAAATACACACGTACGGGTGCATAAC [CACACA_site8444],8.74 ± 0.45
22,ATCATGAAATATATTTGTACACATAATAATATAATA [XGTACX_site8798],8.88 ± 0.38

row,Sequence,gcPBM binding intensity (ln)
1,ATTTGGCAGAAACACACACACACACCCACCCACATA [CACACA_site589],10.2 ± 0.35
2,GGAATAGTCGGGTGCATACACACCTTAAATATAATA [CACACA_site1081],8.75 ± 0.51
3,AATCATATTAGTATGGTGCAATATATATATAAATAT [GTGCAC_site9800],8.88 ± 0.33
4,AAAGAAAATTCAATAGTGCATAAAAATATATATGTT [GTGCAC_site9680],8.8 ± 0.51
5,ACTAATTACTATAAAACACACATATATTTATTTATA [CACACA_site7263],8.8 ± 0.47
6,CACATGTATTTATAGGTGCGTAAAAACACTTTATAT [GTGCAC_site9501],8.73 ± 0.38
7,TTATAGAAACATTGGTGTACGATATTTACTTCTTTC [XGTACX_site7314],8.79 ± 0.5
8,TTTTACTATACTTATGCACACAAGATATATACATAT [CACACA_site2968],9.1 ± 0.32
9,TAAAAAAATTCATGCACACGAAATAAAAAGCACCTT [CACACA_site4667],9.21 ± 0.3
10,TTTTCATTTTTTCGTTGTACATAAATAATATATATT [XGTACX_site856],8.72 ± 0.38
11,AATACATACATACATACACACATATATATATATTAT [CACACA_site3575],9.34 ± 0.29
12,AAACATAAATTTTATTGTACATTATATAGAATTTTC [XGTACX_site576],8.46 ± 0.41
13,TTTTTTAAAAGATAATATTTTATTAATGTATTCTCA [GTGCAC_negctrl_site598],8.33 ± 0.51
14,GCTTAGTTATATAACTGTACTATTTTTATTTATATG [XGTACX_site884],8.9 ± 0.48
15,ATAAAGTAAGAAGAAATAATGATTTTCATGGAAAAC [XGTACX_negctrl_site322],8.67 ± 0.58
16,AAATATAAGTAAATAAATAAATATATAAATATATAA [TGCATGCA_negctrl_site441],8.65 ± 0.64
17,AAATACATACATTAATGTACAAATAGAAACACTCTT [XGTACX_site1512],9.21 ± 0.45
18,CTCATAGTTGGGTGCACACAAAAAATTAAAAAAATA [CACACA_site3032],9.2 ± 0.67
19,AATAAGATAAGGAAAAGTACTTATAATTAAACTAAT [XGTACX_site1850],8.81 ± 0.47
20,TTTTTATTCGTTAAATGTACAAAAAAAATGTTATAT [XGTACX_site2804],8.31 ± 0.43
21,ATACACTAGAAAATTTTATAGTATTATTAATGTTAA [GTGCAC_negctrl_site101],8.51 ± 0.41
22,GATAAACCATATATAACACACATATGAATATTGCAA [CACACA_site6735],9.1 ± 0.33

row,Sequence,gcPBM binding intensity (ln)
1,CACCCATACAGACATACACACACATATATATTAATA [CACACA_site8077],9.67 ± 0.27
2,ATATCATATATAAGTCGTACGATGAATAGAATTTTT [XGTACX_site7586],9.2 ± 0.54
3,CTTATACAAAAAAAAAGTACATAACATAATAAGAAT [XGTACX_site6782],8.97 ± 0.47
4,TTATTTAAAAATAGCACACATTATATATATATATAT [CACACA_site5556],9.01 ± 0.27
5,ACAGATGATCAAAATTGTACAGAGTTATATTATATT [XGTACX_site4642],8.8 ± 0.52
6,TAAGTAATAGTTTGTGCACACTCAAGTATATCATAT [CACACA_site4035],9.21 ± 0.46
7,TTTATTTTTCATTGGGGTACACAAGTTTATTTTATT [XGTACX_site4263],8.95 ± 0.35
8,CCATAATTATATGCCAGTACATATTTGTAACAAAAA [XGTACX_site851],8.72 ± 0.37
9,CTTTTAAAAAAATTCATGCACACGAAATAAAAAGCA [CACACA_site929],8.93 ± 0.47
10,TATTATTCCATGTGAAGTACAGAAATATAAATAAAT [XGTACX_site5106],8.64 ± 0.39
11,CAAAATATTTTTATAACACACATATATAGAATGTGC [CACACA_site1145],8.77 ± 0.37
12,TATATATATATAACAACACACACAGATCATAAAACT [CACACA_site8670],9.64 ± 0.28
13,TATTTTTTTTCGTAATGTACATAAAAAATGCAAAAA [XGTACX_site8491],8.27 ± 0.36
14,ATTATATAATTTAATCGTACACAAATATTTGTTAGT [XGTACX_site5913],8.74 ± 0.44
15,TTTTACTATACTTATGCACACAAGATAAATACATAT [CACACA_site5619],9.05 ± 0.46
16,ATACCTCAAATTGATACACACAAAAAAAGTAAATTA [CACACA_site3134],9.06 ± 0.35
17,CTATTTTAATATTTTACACACCATGTAAAATATATA [CACACA_site5732],8.67 ± 0.35
18,TATCATCTTAATATCGTGCACATTTATAGAACGAAA [GTGCAC_site9992],8.56 ± 0.34
19,TACAATATAATTTAATGTACATGTGAATATATATAT [XGTACX_site4675],8.74 ± 0.42
20,TATTAAAAGGTGAGTACACACATATCTGAGTATATA [CACACA_site5192],8.96 ± 0.5
21,TAATATACTATAAATACACACAAGTGTACATACTTC [CACACA_site983],9.06 ± 0.4
22,TTAAAAAGAGGTGACACACACATATAAATCTAAATC [CACACA_site3738],9.34 ± 0.56

row,Sequence,gcPBM binding intensity (ln)
1,TTGTGCTAAACAAAAAAAAATATATATAAAAAAATA [XGTACX_negctrl_site388],8.37 ± 0.62
2,ATAAAAATATATGAAACACACAGTTTCTATAAGAAA [CACACA_site4156],8.68 ± 0.47
3,ATATGTATATAATAAGAACACACATATATTTAATTT [CACACA_site8961],9.12 ± 0.35
4,GTTATTAAATAATTCACACACATATATAAATAAATA [CACACA_site7129],9.03 ± 0.38
5,ATATCTCAACATATCACACATATATATATATAATAT [CACACA_site5018],9.16 ± 0.2
6,AATAAATATAAATAAATAAATATATATATATATTTG [CACACA_negctrl_site1486],8.56 ± 0.4
7,ATATGTATATTTTTGATGTGCTTTTATTTGGTTATT [CACACA_negctrl_site626],9.05 ± 0.5
8,CATCCACATAGATGTACACACATATATATATATATA [CACACA_site5616],9.945 ± 0.078
9,CTTCATAAAAATTGCACACATATAATAATGTACATA [CACACA_site2212],8.96 ± 0.36
10,ATTTTTTTATAATCAACCCATTTCCTACATTTTTAT [CACACA_negctrl_site1237],8.98 ± 0.67
11,AAAATTAATTTATTTACACACAATATTAAAATATTT [CACACA_site7512],8.59 ± 0.45
12,TTACATATTCATAAAAGTACATAATTATAAAAGGTA [XGTACX_site906],8.75 ± 0.41
13,TTTTATACATATTTTACACACTAAAATATACAGATA [CACACA_site4333],8.63 ± 0.45
14,TATAATATATAAAAATGTACACATAAATATAAGTAG [XGTACX_site665],8.89 ± 0.42
15,GTATATATGTTTTATACACACATTAAAGGAAATATA [CACACA_site984],8.94 ± 0.4
16,CACAAACAGACAAACACACACACACGGACATACATA [CACACA_site6350],10.1 ± 0.11
17,ACTAAATAAATAAATATAATATATAAATATGTATGT [TGCATGCA_negctrl_site583],8.78 ± 0.43
18,ACATGCAAGAAGAAATGTACTTAACATCTATATAGA [XGTACX_site7338],8.83 ± 0.48
19,AAAAAAAAAATTAAATGTACATATATAATATATATA [XGTACX_site7245],8.6 ± 0.47
20,GCCATAAAGATATATACACACATAAAAAAAAGTTAT [CACACA_site6674],9.14 ± 0.45
21,ATTATTATAGATAAAACACACAATTTTGTTTTCACA [CACACA_site7792],8.73 ± 0.4
22,TTAACAAAGAAACACACACACACACCCAAAAAAAAA [CACACA_site516],10.2 ± 0.11
